Assay results published in PubChem BioAssay AID904 (National Center for Advancing Translational Sciences (NCATS), 2007).
Among all 55,000 compounds or so, about 530 (0.96%) were called active. The shares of active, inactive and inconclusive entries below differ from those in the screen. Calls follow the shape of the dose curve; as a rule, active = well fitted cell-killing curve with a large enough effect; inconclusive = small, poorly fitted or top-dose-only effect; inactive = no such curve, though single readings can be large or run the other way. Where the call is inconclusive, the potency comes from a doubtful curve fit.

Experiment: qHTS Screen for Compounds that Selectively Target Cancer Cells with p53 Mutations: Cytotoxicity of p53 Null Cells at the Nonpermissive Temperature; also: nearly all actives have a fitted effect of over 50% in size;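 as to activity, negative = cell killing: 0% = DMSO only and -100% = full killing by 100 µM tamoxifen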
Conditions: H1299 p53-null (neo) cells, 39C, ATPlite viability, 24 h; activity, negative = cell killing: at 46.1 µM (top of the series)
Summary of the method: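 Luminescent ATP signal reported cell survival after H1299 lines (neo, p53 null; or p53 A138V) received up to 46 uM compound and 24 hr incubation at 39C.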
Potency is read from the fitted curve at half-maximal effect; tags tell the direction and shape of the fitted curve.

SMILES	Potency	activity, negative = cell killing
CC(=O)Nc1ccc2nc(SCCOc3ccccc3Cl)sc2c1	inconclusive: 12.6 µM [cytotoxic, single point]	–
CC(C)(C)NC(=O)NC(=O)COC(=O)c1ccc(OC(F)(F)F)cc1	inconclusive: 0.0447 µM [cytotoxic, full curve, poor fit]	–
Cc1ccc(Cn2c(CO)cnc2SCC(=O)Nc2cccc(F)c2)cc1	–	inactive: 25.6%
CC(C)(C)c1ccc(C(=O)Nc2nnc3n2CCS3)cc1	inconclusive: 15.8 µM [cytotoxic, single point]	–
CCc1ccc(-c2[nH]nc3nc(-c4cc(OC)ccc4OC)cc(C(=O)O)c23)cc1	active: 3.98 µM	–
O=C(COc1ccccc1)Nc1ccc(Cl)c(-c2nc3ncccc3o2)c1	–	inactive: -3.5%
O=S(=O)(Nc1cccc(-c2ccc(N3CCOCC3)nn2)c1)c1ccc(F)c(C(F)(F)F)c1	inconclusive: 15.8 µM [cytotoxic, partial curve]	–
CCOc1ccc(NC(=O)C2CCC(CNS(=O)(=O)c3ccc4c(c3)CCCC(=O)N4)CC2)cc1 (configuration not stated)	inconclusive: 0.1 µM [cytotoxic, full curve, poor fit]	–
COc1ccc(N2CCN(CC(O)COc3c(OC)cccc3OC)CC2)cc1 (configuration not stated)	–	inactive: 9.02%
CCOc1ccc(-c2cn3nc(CC(C)C)sc3n2)cc1	inconclusive: 12.6 µM [cytotoxic, partial curve]	–
Cc1ccc(-n2nc(C)c3c(C(F)(F)F)cc(-c4cccnc4)nc32)cc1C	inconclusive: 0.501 µM [cytotoxic, full curve, poor fit]	–
CC(C)Nc1ncnc2c1cnn2-c1ccccc1	inconclusive: 8.91 µM [cytotoxic, partial curve]	–
Cc1oc2ccc(O)c(CN3CCCCCC3)c2c1C(=O)Nc1cccc(C(F)(F)F)c1	inconclusive: 31.6 µM [cytotoxic, single point]	–
COc1ccc(OC)c(NC(=O)C2=C(C)C(=O)OC23CCN(C(C)C)CC3)c1	inconclusive: 2 µM [cytotoxic, single point]	–
COc1ccccc1Nc1c2c(nc3ccc(NC(=O)c4ccc(N(C)C)cc4)cc13)CCCC2	–	inactive: 5.5%
COc1ccc(CCNC(=O)c2ccc(Cn3c(SCc4ccccc4)nc4cccnc43)cc2)cc1	inconclusive: 35.5 µM [cytotoxic, single point]	–
CCOC(=O)c1ccccc1NC(=O)c1c(C)oc2ncnc(N3CCOCC3)c12	–	inactive: -7.28%
Fc1ccc(-n2ncc3c(NCCCn4ccnc4)ncnc32)cc1	–	inactive: 15.4%
Cc1ccc(Cl)cc1NS(=O)(=O)c1ccc2c(c1)NC(=O)CCS2	–	inactive: -18.4%
COc1ccccc1Cn1cc(C(=O)c2ccc(Cl)cc2)c(=O)c2ccccc21	inconclusive: 31.6 µM [cytotoxic, single point]	–
Cc1ccc(CNC(=O)c2ccc3c(c2)c(C)c(C)n3Cc2ccccc2)o1	inconclusive: 11.2 µM [cytotoxic, partial curve]	–
CCOC(=O)CSC1=Nc2ccccc2C2=NC(CCC(=O)NCc3ccc(F)cc3)C(=O)N12 (configuration not stated)	–	inactive: -3.67%
COc1cccc(C(=O)NCCc2csc(-c3ccc(Cl)cc3)n2)c1	inconclusive: 0.282 µM [cytotoxic, full curve, poor fit]	–

SMILES	Potency	activity, negative = cell killing
CCOC(=O)C1CCN(C(c2ccc(SC)cc2)c2c(O)cc(C)n(Cc3ccco3)c2=O)CC1 (configuration not stated)	–	inactive: -4.76%
COc1cc(C2NC(=O)c3c(sc4c3CCN(C)C4)N2)cc(Br)c1OC(=O)c1ccc(C)cc1 (configuration not stated)	–	inactive: 1.22%
COc1ccc(OC)c(CNC(=O)c2ccc(C)c(NC(=O)c3nsc4ccccc34)c2)c1	inconclusive: 0.0158 µM [cytotoxic, full curve]	–
CCCCNC(=O)C1CCN(S(=O)(=O)CCC)CC1	–	inactive: 6.17%
COc1ccc(-c2nnc(SCC(=O)Nc3ccccc3OC)o2)cc1	inconclusive: 10 µM [cytotoxic, partial curve]	–
COc1ccc(C)cc1NC(=O)c1ccc2c(=O)n3c(nc2c1)CCCCC3	inconclusive: 6.31 µM [cytotoxic, partial curve]	–
Cc1ccc2sc(N3CCN(C(=O)CCS(=O)(=O)c4ccc(Cl)cc4)CC3)nc2c1C	inconclusive: 0.0224 µM [cytotoxic, full curve, poor fit]	–
COc1ccc(Nc2nc3c(S(=O)(=O)c4ccc(Br)cc4)nnn3c3ccsc23)c(OC)c1	inconclusive: 10 µM [cytotoxic, partial curve]	–
Cc1ccccc1NC(=O)c1c(NC(=O)c2ccncc2)sc2c1CCC(C(C)(C)C)C2 (configuration not stated)	–	inactive: 14.3%
COc1ccc(-c2nc(SCC(=O)Nc3ccc4c(c3)OCO4)c(-c3ccccc3)[nH]2)cc1	inconclusive: 25.1 µM [cytotoxic, partial curve, poor fit]	–
COc1ccc2[nH]cc(CCNC(=O)Nc3cccc(F)c3)c2c1	–	inactive: -20.1%
CCOC(=O)N1CCN(C(=O)COc2cccc3c2CCN(Cc2cccc(C)c2)C3=O)CC1	–	inactive: 11.8%
CNS(=O)(=O)c1ccc(NC(=O)c2cnn3c(C(F)F)cc(-c4ccccc4)nc23)cc1	inconclusive: 2 µM [cytotoxic, single point]	–
CC(CCc1ccccc1)NC(=O)Cn1c(=O)nc(-c2ccccc2F)c2cc(Cl)ccc21 (configuration not stated)	inconclusive: 22.4 µM [cytotoxic, partial curve, poor fit]	–
CCc1ccc(CNC(=O)C2CCCN(c3nnc(C)c4c(C)n(-c5ccc(OC)cc5)nc34)C2)cc1 (configuration not stated)	inconclusive: 31.6 µM [cytotoxic, single point]	–
CCc1ccc(CNC(=O)CSc2c3c(nc4ccc(Cl)cc24)CCCC3)cc1	–	inactive: 5.22%
Cc1ccc(NC(=O)c2cccc(N3CCCS3(=O)=O)c2)cc1C	inconclusive: 0.0032 µM [cytotoxic, full curve, poor fit]	–
CC(C)(C)c1ccc(C2=NC(C)(C)N(CC(=O)Nc3ccc(F)c(F)c3)C2=O)cc1	active: 12.6 µM	–
CCC(=O)N1CCc2cc(CNS(=O)(=O)c3ccc(NC(=O)CC(C)C)cc3)ccc21	inconclusive: 35.5 µM [cytotoxic, single point]	–
Cc1cc(C)cc(NC(=O)Nc2ccccc2OCc2cc(=O)n3ccccc3n2)c1	inconclusive: 0.1 µM [cytotoxic, partial curve]	–
CCCN(C(=O)COc1cc(=O)n(CC)c2ccccc12)c1ccc(C(C)C)cc1	inconclusive: 20 µM [cytotoxic, single point]	–
Cc1ccccc1C(=O)OCc1cc(=O)n2c(C)csc2n1	–	inactive: -0.443%
CCc1cccc(NC(=O)c2oc3ccc4c(c3c2C)C(=O)CC(C)(C)O4)c1	active: 5.01 µM	–

SMILES	Potency	activity, negative = cell killing
O=C(CCn1c(=O)c2cccn2c2cccnc21)NCc1ccccc1F	inconclusive: 0.631 µM [cytotoxic, full curve, poor fit]	–
CCC1CCc2nc3sc(C(=O)Nc4cccc(C(F)(F)F)c4)c(N)c3cc2C1 (configuration not stated)	–	inactive: -8.39%
CCc1nn2c(=O)cc(COC(=O)c3ccc(NC(=O)C4CCCCC4)cc3)nc2s1	inconclusive: 0.631 µM [cytotoxic, full curve]	–
Cc1ccc(OCC(=O)Nc2ccc3[nH]c(=O)sc3c2)cc1	–	inactive: -15.7%
CC(=O)c1cccc(Nc2nn(-c3ccc(OC(F)(F)F)cc3)nc2C(C)=O)c1	inconclusive: 2.51 µM [cytotoxic, single point]	–
O=C(Nc1ccc(F)cc1)Nc1ccc2snnc2c1	inconclusive: 15.8 µM [cytotoxic, single point]	–
O=C(Cn1c(SCc2ccccc2F)nc2cccnc21)Nc1ccc(F)c(Cl)c1	inconclusive: 35.5 µM [cytotoxic, single point]	–
COc1ccc(Cl)cc1C1CC(=O)Nc2cc3c(cc21)OCCO3 (configuration not stated)	inconclusive: 0.794 µM [cytotoxic, full curve]	–
COc1ccc(-c2nc3ccccc3s2)cc1NC(=O)COc1cccc(C)c1	inconclusive: 31.6 µM [cytotoxic, single point]	–
Cc1ccc(C(=O)Nc2ccc(Br)cc2)cc1S(=O)(=O)NCc1ccccc1	inconclusive: 31.6 µM [cytotoxic, single point]	–
CCOc1ccc2nc(NC(=O)c3ccccc3)sc2c1	inconclusive: 3.16 µM [cytotoxic, full curve]	–
Cn1cc(C(c2ccccc2)c2ccc(Cl)s2)c2ccccc21 (configuration not stated)	–	inactive: 13.2%
CCCCN(C)CC(O)Cn1cc(/C=C/C(=O)c2ccc(C)cc2)c2ccccc21 (configuration not stated)	active: 22.4 µM	–
O=C(Nc1ccc(C(=O)OCc2cc(=O)n3c4c(sc3n2)CCCC4)cc1)c1ccc(Cl)cc1	inconclusive: 0.02 µM [cytotoxic, full curve, poor fit]	–
NC(=O)c1ccccc1N/C=C/C(=O)c1cccs1	active: 11.2 µM	–
COc1ccc(NC(=O)Cn2c(=O)n(Cc3ccccc3Cl)c(=O)c3cc(OC)c(OC)cc32)cc1OC	–	inactive: -21.1%
Cc1ccccc1NC(=O)Cn1c(=O)n(CCC(=O)NCc2ccc3c(c2)OCO3)c(=O)c2sccc21	inconclusive: 31.6 µM [cytotoxic, partial curve, poor fit]	–
Cc1ccc2nc(N3CCC(C(=O)NCc4ccc(F)cc4)CC3)[nH]c2c1	–	inactive: -5.48%
CCOC(=O)C1CCN(C(=O)c2ccc3c(c2)sc2nc(-c4ccc(C)cc4)cn23)CC1	–	inactive: 19.7%
Cn1ccc2c(OCC(=O)Nc3ccc([N+](=O)[O-])cc3)cccc2c1=O	inconclusive: 1.26 µM [cytotoxic, partial curve]	–
CCOC(=O)c1ccc2c(c1)[C@@H]1C=CC[C@@H]1[C@H](c1cccc(OC)c1OC)N2	inconclusive: 22.4 µM [cytotoxic, partial curve]	–
